Here are results for 94 sequences from the supplement of paper PMC3334620.

In all, about 33,000 sequences were measured (“E-score (-0.5 to 0.5)”: median about -0.054, highest 2% from about 0.39 on). This is one part of the list.

This assay has as its target Ylr278c (UniProt Q05854). Kind of assay: PBM E-score (8-mer binding enrichment) (E-score (-0.5 to 0.5)); higher = stronger / more preferred TF binding; most listed sequences are background and not binding sites. The settings on record: protein concentration: 200 nM; construct: GST-DNA-binding domain. Here is the method: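 Universal 'all 10-mer' protein binding microarrays (Agilent AMADID 015681) probed with GST-tagged S. cerevisiae TFs (full-length or DBD) made by in vitro transcription/translation (PURExpress), about 100-200 nM. Bound TF was detected with fluorescent anti-GST. Each ungapped 8-mer (which stands for itself and its reverse complement) is scored by the PBM enrichment score (E-score), a modified Wilcoxon-Mann-Whitney statistic from -0.5 to +0.5, computed with the Universal PBM Analysis Suite. Scale: above 0.35 generally sequence-specific binding.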
For ACTGGAGG, the “PBM E-score” value is -0.0832.
The value for GCTACCAA was -0.0501.
The same measure for GCCGCGCC: 0.137; for AGATAGTG: -0.00772; for GCGTTGCA: 0.0517.
For the sequence AAAGCCTG, the “PBM E-score” value was -0.223.
The same measure for GCCTCGAA: -0.115.
TAGGCCTA: the “PBM E-score” value was -0.323.
The value for ATAGGGAC was -0.162.
With GTTCGCTA, the “PBM E-score” value is -0.132.
Regarding ATTCATGC, the “PBM E-score” value came out at 0.00651.
Take ACCCTGAA: the “PBM E-score” value is -0.0822.
The value for AGCAACGA was -0.198.
The same measure for GATACGCA: -0.238.
The same measure for GGGGCACA: -0.0701; for GGCAAGAA: -0.0515; for GAGCAGGA: -0.0113.
For the sequence TAAGAACA, the “PBM E-score” value stood at 0.0282.
The same measure for ACACAGTG: -0.0585; for GTTCTTTA: -0.0613; for GATCAACC: 0.0685.
The same measure for ATTGAGGA: -0.051.
As for AAGGGTGG, the “PBM E-score” value was -0.221.
The same measure for AGCCACCA: -0.223; for ATATATAG: 0.0481; for TCTAATAA: -0.175.
ACGTATGC: the “PBM E-score” value is -0.065.
The same measure for AATGATGA: -0.0929.
The value for CTGGGATA was 0.0199.
Turning to AGAATTTA, the “PBM E-score” value was -0.0511.
Turning to TCGTTTAA, the “PBM E-score” value was -0.281.
In the case of TCGCGACA, the “PBM E-score” value was -0.00641.
The same measure for CCAGGGGA: 0.014; for CTTACCGA: 0.0404; for AAGCATGA: -0.0695.
The same measure for TCGCAAAA: 0.0186; for GGCGATAC: 0.113.
The value for TCGCTCAA was -0.103; that for ACGCGCCA was -0.0653.
As to AGTCAAGC, the “PBM E-score” value was -0.206.
The same measure for CAAAGGAC: -0.249; for ATTTTTAA: 0.139.
As for CGATGGTA, the “PBM E-score” value was -0.0705.
As to GCAACACC, the “PBM E-score” value was determined as 0.113.
Regarding CCACCCAA, the “PBM E-score” value was -0.0641.
As for AATAACGG, the “PBM E-score” value came out at 0.234.
Turning to GACGATGC, the “PBM E-score” value is -0.0415.
Take TCGCGAGA: the “PBM E-score” value came to 0.0984.
Take AGCTACGG: the “PBM E-score” value was -0.0612.
Regarding CTCCTGTC, the “PBM E-score” value is -0.141.
Turning to ATAAGGAG, the “PBM E-score” value is 0.0699.
The value for GCCGTTAC was 0.183.
The value for CTCCATCA was 0.0402; that for GGTGGCAC was -0.0782; that for AATGGGCA was -0.179.
The same measure for CGAAACCG: 0.276; for CAACTATC: -0.154.
With GCCACAGA, the “PBM E-score” value is -0.146.
With CAACAAGG, the “PBM E-score” value is -0.101.
The same measure for CTGTGCAC: -0.193.
The value for AAAAATGA was -0.148; that for TCCTGAAA was 0.0212.
The value for AGGTTATC was -0.0309; that for CCGTCCAC was 0.152; that for AGACTGTA was -0.188.
For the sequence ATCACGTC, the “PBM E-score” value was -0.0735.
The same measure for AATGAAAA: 0.0333; for AATGGTGG: -0.149; for ACTGTCGG: 0.305.
The same measure for CTACGATA: -0.16; for GTGGCGCA: -0.132.
For GCGTCGGA, the “PBM E-score” value was 0.438.
The same measure for ATAAAAGA: -0.13; for GCTCTAAA: -0.284; for CCTATTCC: 0.193.
The value for AGATCGGG was 0.222.
In the case of ACAAAGCC, the “PBM E-score” value was 0.0747.
The value for AGGTTCGA was -0.0589; that for AATGATTG was -0.0396; that for TAAACACA was -0.183.
Consider ATGTCAAC, for which the “PBM E-score” value is -0.0364.
The same measure for AGGATCCG: 0.226; for GGGTGACA: 0.0121; for AGTCGGAA: 0.408.
The value for TCCAGCAA was -0.373; that for CGGTTTAG was 0.096; that for AGCAGAAT was -0.0911.
The same measure for ATGAATAA: -0.189; for GACGGACC: 0.284.
As to AGGGAACT, the “PBM E-score” value is -0.0186.
The same measure for GCTATGGA: -0.0959; for CGCGCATC: 0.0969.
Regarding ATCTGGGA, the “PBM E-score” value was -0.273.
The value for CAAGGGCG was -0.0936.
